Measured values: PMC4336329 (PLoS ONE, 2015)
Hit rate of the full screen: of about 310,000 compounds, about 2,200 (0.71%) showed an effect of 50% or more. Effects have a minus sign here. This is one part of the list.

Biological target: human ether-à-go-go-related gene (hERG) potassium channel (human, UniProt Q12809)
Assay: primary screen, population patch clamp on CHO cells stably expressing hERG

human ether-à-go-go-related gene (hERG) potassium channel, sequence (Q12809 whole entry, looked up): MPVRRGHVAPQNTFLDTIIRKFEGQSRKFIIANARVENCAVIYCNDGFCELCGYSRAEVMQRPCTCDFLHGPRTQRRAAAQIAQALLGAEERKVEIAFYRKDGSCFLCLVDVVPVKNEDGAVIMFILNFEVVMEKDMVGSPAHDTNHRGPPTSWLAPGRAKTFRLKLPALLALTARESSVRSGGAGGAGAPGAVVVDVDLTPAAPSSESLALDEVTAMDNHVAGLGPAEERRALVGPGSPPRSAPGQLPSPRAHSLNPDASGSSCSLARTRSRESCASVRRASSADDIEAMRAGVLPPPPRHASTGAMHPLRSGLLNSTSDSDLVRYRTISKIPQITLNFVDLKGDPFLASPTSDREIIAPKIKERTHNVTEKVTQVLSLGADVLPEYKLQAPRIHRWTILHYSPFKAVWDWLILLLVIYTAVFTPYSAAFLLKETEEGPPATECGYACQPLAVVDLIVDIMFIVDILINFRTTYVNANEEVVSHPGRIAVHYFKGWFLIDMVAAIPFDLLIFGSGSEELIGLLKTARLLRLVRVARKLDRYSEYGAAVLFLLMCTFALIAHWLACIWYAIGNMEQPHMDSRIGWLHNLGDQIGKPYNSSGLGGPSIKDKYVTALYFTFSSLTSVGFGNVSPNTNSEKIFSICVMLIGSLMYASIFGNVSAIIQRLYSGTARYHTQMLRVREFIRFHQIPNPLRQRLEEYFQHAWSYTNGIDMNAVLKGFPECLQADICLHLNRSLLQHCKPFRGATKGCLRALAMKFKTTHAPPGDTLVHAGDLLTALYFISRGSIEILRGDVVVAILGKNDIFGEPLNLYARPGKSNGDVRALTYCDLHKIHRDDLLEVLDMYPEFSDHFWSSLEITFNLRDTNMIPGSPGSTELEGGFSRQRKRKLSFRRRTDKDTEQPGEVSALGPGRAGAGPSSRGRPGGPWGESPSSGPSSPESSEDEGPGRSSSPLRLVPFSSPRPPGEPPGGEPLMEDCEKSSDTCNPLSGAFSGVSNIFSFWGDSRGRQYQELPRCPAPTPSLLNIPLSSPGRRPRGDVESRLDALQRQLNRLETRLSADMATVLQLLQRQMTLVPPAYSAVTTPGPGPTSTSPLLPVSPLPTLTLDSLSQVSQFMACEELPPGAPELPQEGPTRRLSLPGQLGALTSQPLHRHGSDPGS

Structure (SMILES)	hERG current change (%, negative = inhibition) at 1uM [%]
COC(=O)[C@@H](NC(=O)NC1CCN(Cc2ccccc2)CC1)C(C)C	13.6
COC(=O)Cc1ccc(NC(=O)c2ccc(C(C)(C)C)cc2)cc1	0.792
Cc1cc(C)c(S(=O)(=O)N2CCN(C(=O)c3c(C)noc3C)CC2)c(C)c1	14
CCN(CC)S(=O)(=O)c1ccc(Cl)c(NC(=O)CSc2cccc[n+]2[O-])c1	-6.3
CC(C)n1c2ccccc2c2cc([N+](=O)[O-])ccc21	18.5
CCOC(=O)c1ccc(NC(=O)c2ccc3c(c2)OCO3)cc1	13.4
CN1CCN(C(=S)Nc2cc(S(=O)(=O)N3CCOCC3)ccc2Cl)CC1	8.54
O=S1(=O)N=C2CCCCCN2C(c2ccc(Cl)cc2)N1 (stereo not drawn)	-1.39
COc1ccc(Nc2ccc(Cl)cc2)c(C(=O)O)c1	3.13
O=C(NC1(C(F)(F)F)NC(=O)N(C2CCCCC2)C1=O)c1ccco1 (stereo not drawn)	5.14
CC(C)C(=O)Nc1c(-c2ccccc2F)c(=O)c2ccccc2n1C	13.1
O=C(Nc1nc2c(s1)CCCC2)c1ccc(N2C(=O)CCC2=O)cc1	5.6
Cc1ccc(NC(=O)c2ccc(NCc3ccc(F)cc3)nc2)cc1	9.35
COc1ccc(NC(=O)N2CCCC2C(=O)NCc2ccc(C)cc2)cc1 (stereo not drawn)	15.8
CC(C)[C@H](NC(=O)OC(C)(C)C)c1nnc(SCC(=O)Nc2ccc(Br)cc2)o1	-0.0537
O=c1[nH]c(=O)n(Cc2ccco2)c2c1C(C(F)(F)F)(C(F)(F)F)N=C(c1ccco1)N2	10.5
COc1cccc(C2C(C(=O)c3cc4ccccc4o3)=C(O)C(=O)N2c2cc(C)on2)c1OC (stereo not drawn)	13.4
COc1cc(NS(=O)(=O)c2ccc(F)cc2)c(C(=O)O)cc1OC	11.8
O=c1c2cc(Cl)ccc2[nH]c(=S)n1Cc1ccco1	-1.43
Cc1ccc(/C=C2\C(=O)NC(=S)N(c3ccc(F)cc3)C2=O)s1	5.04
COc1ccccc1C(=O)Nc1c(-c2ccccc2)nc2ccccn12	7.3
CCOc1ccc(N(C)S(=O)(=O)c2ccc(-c3cc(C)no3)s2)cc1	15.5

Structure (SMILES)	hERG current change (%, negative = inhibition) at 1uM [%]
COc1ccc(C(=O)Nc2cc(C)nn2-c2ccc(C)cc2)cc1	13.5
Cc1cc(O)c2c(c1)C(=O)c1cc(O)cc(O)c1C2=O	7.15
COc1ccc(NS(=O)(=O)c2cccc(C(=O)N/N=C/c3cccs3)c2)cc1	-0.292
CCNC(=O)C(=O)NCCc1ccc(Cl)cc1	14.9
O=[N+]([O-])c1cccc(C(=S)N2CCN(c3ccccc3F)CC2)c1	7.18
CCOC(=O)Cc1nnc(NC(=O)c2ncn[nH]2)s1	0.492
COC(=O)C1=C(c2c(C)noc2C)C[C@@H]2CC[C@H]1N2C(=O)N1CCCC1	12.8
O=C(O)CC/C(=C\c1ccc(Cl)c([N+](=O)[O-])c1)c1nc2ccccc2s1	4.52
COC(=O)C1=C(c2ccc(OC)c(OC)c2)C[C@@H]2CC[C@H]1N2C(=O)NCc1ccco1	7.98
Cc1ccccc1NC(=O)CC1SC(=Nc2ccc(O)cc2)NC1=O (stereo not drawn)	16.3
Nc1ccc(CCN2CCN(c3cccc(C(F)(F)F)c3)CC2)cc1	-27.7
CCN(CC)S(=O)(=O)c1ccc(N2CCOCC2)c(NC(=O)c2ccc3c(c2)OCCO3)c1	-4.45
COc1ccc(CN(C(=S)Nc2ccccc2)C2CC(=O)N(c3ccccc3)C2=O)cc1 (stereo not drawn)	17.8
O=C(CNS(=O)(=O)c1ccccc1)NCC(=O)OCc1ccc(Br)cc1	8.78
Cc1nn(CC#N)c(=O)n1-c1ccc(Cl)cc1	9.9
CC(C)CCNC(=O)C1CCN(c2nc3ccccc3o2)CC1	-1.04
CCS(=O)(=O)N1CCN(c2ccnc3cc(Cl)ccc23)CC1	-67.4
CC(C)CCN(CC(=O)NC1CCCC1)C(=O)C(=O)Nc1ccc2c(c1)OCCO2	7.55
COc1ccccc1C1C2=C(N=C3SCC(=O)N31)c1ccccc1CC2 (stereo not drawn)	8.23
CC(=O)Nc1cccc(Nc2nc(-c3ccccc3F)nc3ccccc23)c1	12.2
COc1ccc(N(Cc2cc3ccc(C)cc3[nH]c2=O)S(=O)(=O)c2ccccc2)cc1	12.2
Cc1ccc(CN2CCN(Cc3ccc4cccc(F)c4n3)CC2CCO)cc1 (stereo not drawn)	-33

Structure (SMILES)	hERG current change (%, negative = inhibition) at 1uM [%]
C#CCNC(=O)C1=C[C@@H](c2ccccc2)C[C@@H](OCCCCO)O1	7.6
CC(C)c1ccc(NC(=O)CSc2nc(=O)n(CCCN3CCOCC3)c3c2CCC3)cc1	-8.72
O=C(NNC(=S)NCc1ccc(Cl)cc1)c1ccc2c(c1)OCO2	7.29
CCOC(=O)CSc1ccc2nnc(-c3ccncc3)n2n1	-2.76
O=C(CCC(=O)N(CC(=O)NC1CCCCC1)c1ccc2c(c1)OCCO2)Nc1ccccn1	11.6
CCCN(CCC)C(=O)CC(c1ccccc1)c1cc(C)ccc1O (stereo not drawn)	-3.91
O=C(Nc1ccc(-c2nc3cccnc3s2)cc1)c1ccco1	11.5
O=C(CC1Sc2ccccc2NC1=O)Nc1ccccc1[N+](=O)[O-] (stereo not drawn)	0.793
COc1ccc(OC)c(Nc2cc(C)nc3nc(C)nn23)c1	2.63
CCCCOc1cccc(C(=O)Nc2ccc(S(=O)(=O)Nc3nnc(CC)s3)cc2)c1	10.5
CN(C)c1ccc(/C=N/NC(=O)c2ccc3c(c2)OCO3)cc1	1.12
Cc1cc(C)c(NC(=O)CCCN2CCCC2)c(C)c1	15.5
CC(=O)N1C(=O)C2(C(C#N)=C(N)Oc3c2c(C)nn3-c2ccccc2)c2ccccc21 (stereo not drawn)	11
CCc1cccc(C)c1NC(=S)NCc1ccc2c(c1)cc(C)n2C	14.5
CCCS(=O)(=O)c1c(S(=O)(=O)CCC)c2cnccn2c1C(=O)c1ccc(Cl)cc1	-8.03
O=C(O)c1ccccc1.OC(CNCC1CCCO1)Cn1c2ccccc2c2ccccc21 (stereo not drawn)	0.168
CCOc1nc(Nc2ccc(OC)c(Cl)c2)nc(OCC)n1	-2.79
CC(C)(C)NC(=O)COC(=O)c1ccc(O)cc1	13.7
COc1ccccc1CNS(=O)(=O)c1ccc2c(c1)CC(C)N2C(=O)C1CCC1 (stereo not drawn)	17.3
COc1ccc2[nH]cc(CCNS(=O)(=O)Cc3ccccc3)c2c1	12.9
CCOc1ccc(S(=O)(=O)NCCC(=O)NC2CCCCC2)cc1	-3.36
COc1cc(OC)c(OC)cc1CN1CCN(Cc2cccc(F)c2)CC1.O=C(O)C(=O)O	8.99

Structure (SMILES)	hERG current change (%, negative = inhibition) at 1uM [%]
CCN(C(=O)CN1C(=O)NC(c2ccccc2)(c2ccc(C)c(C)c2)C1=O)C1CCS(=O)(=O)C1 (stereo not drawn)	4.47
CC(=O)c1ccc(NC(=O)C(C)N2CCN(C/C=C/c3ccccc3)CC2)cc1 (stereo not drawn)	-41
CC(C)(C)c1ccc(S(=O)(=O)N2CCN(CC(O)COCC3CCCO3)CC2)cc1 (stereo not drawn)	-12.1
O=C(NCCC1=CCCCC1)C1CCN(S(=O)(=O)N2CCCC2)CC1	8.62
COc1ccc(CN(CCN(C)C)c2ccccn2)cc1.O=C(O)/C=C\C(=O)O	-0.0995
COc1ccccc1N1CCN(C(=O)/C=C/c2c(Cl)nc3ccccn23)CC1	5.66
CCOn1c(=O)c[n+]([O-])c2ccccc21	12.8
CC(=O)Nc1ccc(S(=O)(=O)NCCSCc2ccco2)cc1	1.25
COc1ccccc1NC(=O)COc1ccccc1	15.6
CN(C)C1=NCCN1CCCCc1ccccc1	0.122
CCn1c(CSc2nc3ccccc3s2)n[nH]c1=S	14.4
CCOC(=O)Cc1cc(=O)[nH]c(/N=C(\N)Nc2ccc(OC)cc2)n1	10.8
O=C(N/N=C/c1cn[nH]c1-c1ccc(F)cc1)c1ccncc1	11.6
N#CCCCSc1nnc(-c2ccc(Cl)cc2)n1-c1ccccc1	4.89
CC1(C)Cc2c(cnn2-c2cccc(F)c2)C(NC(=O)CSc2ccncc2)C1 (stereo not drawn)	-11.4
CCOC(=O)C1(CCSC)NC(c2ccco2)C2C(=O)N(C)C(=O)C21 (stereo not drawn)	15.1
COc1ccc2cc(-c3[nH]ncc3CN3C[C@@H]4CCC[C@H]3C4)ccc2c1	-10.1
CCN(CC(=O)Nc1ccc(NC(C)=O)cc1)C(=O)c1ccccc1SCC(=O)N1CCCC1	13
COC(=O)CN1C(=O)N/C(=C/c2cc(OC)c(OC)cc2C)C1=O	9.27
Cc1ccc(C(=O)NCc2ccc3c(c2)OCO3)cc1C	15.4
CCC(C)c1c(O)nc(SCC(=O)N2CCOCC2)[nH]c1=O (stereo not drawn)	3.49
